Assay results published in the supplement of paper PMC3334620.
In all, about 33,000 sequences were measured (“E-score (-0.5 to 0.5)”: median about -0.036, highest 2% from about 0.37 on). The list shows a part of the results.

target: T1, Yer064c (UniProt P40041); test: PBM E-score (8-mer binding enrichment) (E-score (-0.5 to 0.5)); higher = stronger / more preferred TF binding; most listed sequences are background and not binding sites; conditions: protein concentration: 200 nM; construct: GST-full length
T1 sequence: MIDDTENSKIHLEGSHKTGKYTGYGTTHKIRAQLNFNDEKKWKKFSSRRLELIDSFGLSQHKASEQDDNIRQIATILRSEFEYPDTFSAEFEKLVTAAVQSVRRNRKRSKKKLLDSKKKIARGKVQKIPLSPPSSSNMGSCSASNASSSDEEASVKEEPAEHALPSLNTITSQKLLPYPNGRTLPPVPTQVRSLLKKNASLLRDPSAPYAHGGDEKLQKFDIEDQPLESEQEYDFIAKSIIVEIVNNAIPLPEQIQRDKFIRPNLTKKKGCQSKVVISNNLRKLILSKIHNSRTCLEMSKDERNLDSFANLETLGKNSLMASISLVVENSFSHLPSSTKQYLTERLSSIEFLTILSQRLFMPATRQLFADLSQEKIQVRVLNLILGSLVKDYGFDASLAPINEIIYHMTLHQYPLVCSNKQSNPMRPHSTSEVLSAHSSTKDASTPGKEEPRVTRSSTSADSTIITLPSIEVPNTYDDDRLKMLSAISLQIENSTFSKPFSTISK
Method: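 Universal 'all 10-mer' protein binding microarrays (Agilent AMADID 015681) probed with GST-tagged S. cerevisiae TFs (full-length or DBD) made by in vitro transcription/translation (PURExpress), about 100-200 nM. Bound TF was detected with fluorescent anti-GST. Each ungapped 8-mer (which stands for itself and its reverse complement) is scored by the PBM enrichment score (E-score), a modified Wilcoxon-Mann-Whitney statistic from -0.5 to +0.5, computed with the Universal PBM Analysis Suite. Scale: above 0.35 generally sequence-specific binding.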

Sequence | PBM E-score
CAGCTGCA | -0.216
CAAGTCTC | 0.00338
AGCCCTTC | -0.303
TTACGTAA | 0.129
ACAAACAG | -0.0373
TCTGGGCA | -0.189
AGCCGACT | 0.241
CCCGGCCA | -0.141
CGCGCCGA | -0.141
TGAAGACA | 0.0738
GATAAGAA | -0.0111
AGCCGTAC | -0.104
CGAGCATC | -0.205
AGAACGAA | -0.113
CATATTTA | 0.236
GCCCTAGC | -0.089
AAGATAAT | 0.133
GCGGTCAA | -0.0967
CCGCGGTC | -0.129
TTTGCAAA | 0.12
GTCTAGCA | 0.0736
TCACGTCA | 0.0167

Sequence | PBM E-score
GAAGTGCA | -0.12
AGTGGGGC | -0.134
TAAAGTGA | 0.185
ACTCCAAG | 0.0843
ACGGTAAA | -0.283
GAGTTGCC | -0.149
ACCCTTGA | 0.0578
ACAATGCG | -0.0538
ACAGTGTA | 0.0814
CATCTCGC | 0.0122
AGCTAGTC | 0.324
AACTGTCA | -0.129
ACCTGCAG | -0.108
AGTTGCGA | 0.0822
CCCTCGAG | -0.0787
AAGACGTC | -0.213
CCTATGAG | 0.219
AAAAACGC | -0.0321
AGAGCGAC | 0.0954
AGATGACG | -0.0495
ATACTTTC | -0.0129
GCCACGAA | 0.0416

Sequence | PBM E-score
ACTCTGTC | 0.118
CTTGATAA | -0.0143
GTCAGCAC | 0.239
CGCTCGCA | -0.0631
AAAACAGA | 0.0177
ATATGTCC | -0.223
ACCCCCAT | -0.325
CCGAACCC | -0.262
CGTGGGAG | -0.15
CCGCACTA | -0.177
CTTCCTAA | -0.0225
TAATCCAA | 0.178
CCCGAGTA | 0.0478
CCCTCTCA | -0.161
ACTCGAAG | 0.149
CCCCAAAC | -0.273
AACGGACC | -0.268
ACCGAGAG | 0.054
GCCGCTTA | -0.0051
GGGCGTGA | 0.0813
CCGAAGAG | 0.0039
GTCGACAA | -0.0508

Sequence | PBM E-score
TATACAAA | 0.0856
ACAAGTTC | -0.161
CCAATGAG | -0.0367
AGCTGTCG | -0.196
AATTACGC | -0.116
CTGACGGC | -0.208
ATCACAGA | 0.234
AGGCAAAA | -0.143
AGCCAGAT | -0.054
GGAACTAA | -0.0808
CGATAGTA | 0.032
CTACATGA | 0.298
CTGTTTGC | 0.0369
AGGCCACG | -0.0254
TAGCGCGA | 0.127
CGATTGAA | 0.152
AGATAGCA | -0.0539
AGCGTTAA | -0.0387
ACGTGTTA | -0.144
AGAAGGAA | -0.276
